Reference: paper PMC2551611 (BMC Microbiology, 2008)

B1: biotin-labeled p63 peptide (last 63 amino acid residues of human nucleolin, RGG carboxy-terminal domain) (peptide)
peptide: not shown
notes: nucleolin, human, the last 63 amino acid residues (C-terminal RGG domain); The biotin came in as a Lys-biotin derivative, so there may be one extra biotinylated Lys before the 63 printed residues; also called biotinylated p63 peptide; RGG p63 carboxy-terminal domain of nucleolin; source: synthetic peptide; not shown: biotin, N-terminal, kept
B2: unlabeled p63 peptide (last 63 amino acid residues of human nucleolin) (peptide)
peptide: not shown
notes: also called RGG domain of nucleolin; source: synthetic peptide

Target: T1, recombinant His-EF-Tu (LVS elongation factor Tu with polyhistidine tag) (Francisella tularensis LVS)
T1 construct: also called recombinant EF-Tu; His-fusion EF-Tu protein
Test: pull-down
Conditions: both partners purified

| Binder | binding result |
| --- | --- |
| B1 | binds |
| B2 | binds |
